Results published in the supplement of paper PMC3334620.
In all, about 33,000 sequences were measured (“E-score (-0.5 to 0.5)”: median about -0.032, highest 2% from about 0.36 on). Some of the results follow.

Molecular target: T1, Sko1 (UniProt Q02100)
T1 sequence: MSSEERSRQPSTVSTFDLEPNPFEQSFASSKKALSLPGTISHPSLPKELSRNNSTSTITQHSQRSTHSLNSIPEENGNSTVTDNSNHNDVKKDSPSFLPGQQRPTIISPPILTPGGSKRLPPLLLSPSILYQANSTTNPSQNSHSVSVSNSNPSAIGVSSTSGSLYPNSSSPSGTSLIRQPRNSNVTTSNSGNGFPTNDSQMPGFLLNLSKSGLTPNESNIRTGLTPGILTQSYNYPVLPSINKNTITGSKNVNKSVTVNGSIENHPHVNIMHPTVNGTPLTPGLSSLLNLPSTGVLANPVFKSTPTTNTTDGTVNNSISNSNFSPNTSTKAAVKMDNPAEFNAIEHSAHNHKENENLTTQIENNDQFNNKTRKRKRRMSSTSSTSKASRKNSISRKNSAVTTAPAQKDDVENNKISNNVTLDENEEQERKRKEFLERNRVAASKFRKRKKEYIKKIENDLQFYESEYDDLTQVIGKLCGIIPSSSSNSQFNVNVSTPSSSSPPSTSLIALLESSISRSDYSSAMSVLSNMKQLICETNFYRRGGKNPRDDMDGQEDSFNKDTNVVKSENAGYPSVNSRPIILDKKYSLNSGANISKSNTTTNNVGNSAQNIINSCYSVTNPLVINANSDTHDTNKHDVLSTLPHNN
Experiment: PBM E-score (8-mer binding enrichment) (E-score (-0.5 to 0.5)); higher = stronger / more preferred TF binding; most listed sequences are background and not binding sites
Details: protein concentration: 200 nM; construct: GST-full length
Method in brief: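 Yeast transcription factors carrying a GST tag, as full-length proteins or DNA-binding domains, were produced by PURExpress in vitro transcription/translation. About 100-200 nM protein was applied to universal all-10-mer Agilent arrays, double-stranded by primer extension on fresh or once-stripped slides. Bound protein was detected with fluorescent anti-GST, and scans were normalised with masliner. The Universal PBM Analysis Suite gave each ungapped eight-base word, pooled with its reverse complement, an E-score, a modified Wilcoxon-Mann-Whitney statistic.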

Sequence	PBM E-score
AGGTGGTG	-0.0259
CTAACCGC	0.0487
CCGGAGAG	-0.124
ATCGTAGA	0.141
CTAACTCC	-0.145
TTATCGAA	0.078
CTTACGTA	0.489
AACGAAAA	0.135
AACGAGAA	0.171
TAGTCGGA	-0.0783
ACCCGAGT	-0.271
ATAAGAAA	0.254
ACTAACCG	0.00032
TACCTACA	0.131
AACTTTCC	-0.146
AAGTGAAG	-0.126
AAACGGCT	-0.219
ATGGAGTG	-0.13
ACTATCAT	0.153
AGGTTAGA	-0.137
AGTTCACA	0.0898
TCAATCAA	0.135
ATCCCCCC	-0.402
ACCGCAAC	0.0766
CGTATATC	0.319

Sequence	PBM E-score
CGTGCCTA	-0.0135
CTCAGGCC	-0.15
CTTTTCCA	-0.22
AGTACTCG	0.0859
ACTCCGCT	-0.299
CGCCAGGC	-0.227
GACTCCCA	-0.398
GCGTTATA	0.194
GGGTCGTA	0.0494
GACACGAA	0.0595
AGCTCTAG	-0.194
GAATCAAC	0.0911
CATGGGTC	-0.134
TACGTGCA	0.423
CACATCAA	0.0965
AGAAGGAT	-0.0487
CCTTGAAG	-0.0857
ACCCCATA	-0.124
ACAGTCCC	-0.27
TAGGGGAA	-0.175
CCGAATCA	-0.0167
GCATGCAC	0.115
GCCATTAA	0.11
ACGCCAGC	0.0567
TAGCCTCA	-0.107

Sequence	PBM E-score
CTCAATCC	0.058
GGCGACTA	-0.169
CTCCCCTA	-0.21
ATTTTACA	0.108
CGCTTGCA	-0.102
CGCCGCAG	-0.311
CAACGGAC	-0.0847
ATGGGCCC	-0.295
CTTCGTGC	0.0593
AGGGCGTC	-0.131
TCCCGACA	-0.139
AAAGAATA	0.193
GTCCTCTA	-0.231
AGACTTCA	-0.038
AATAAGAA	0.0689
AATTGGTA	0.126
CGATTCAG	-0.0385
GCTGTCTA	-0.155
CCATTAGC	0.00959
AAGAGTCT	-0.275
CAAGGTCG	-0.191
CACTGAAG	-0.222
CGGGCCTC	-0.0722
CGAGTTAA	0.202
AAAACACC	0.0848

Sequence	PBM E-score
CTTCAGCC	-0.149
ACGTAGCG	0.42
ACGACAAA	0.223
AGCAGGCA	-0.204
TACCACAA	0.209
AGTCGATC	-0.162
TCCTAACA	0.0335
CGGCGGGC	-0.195
GGTAGTTA	0.0808
ACGCTGGG	-0.109
GTGATTCA	0.0454
CGTAATTA	0.439
CAGATCAC	-0.0715
CGTACGAC	0.308
GGAGTCGA	-0.324
CGATGGAG	-0.142
ACTGGGAT	-0.113
AGGCAAGG	-0.225
CGGCAGGC	-0.236
ACATATAC	0.202
ATGGACGG	-0.116
CAGTCCGC	-0.145
CACCGTGG	-0.187
GGCTGCGA	-0.0587
AGCTAAAG	0.161

Sequence	PBM E-score
CATCAAAG	-0.0695
ACTACGTG	0.415
AAACCTTA	0.0644
AAACTATA	0.0408
ACGACGCC	0.0289
ATGCGAGA	-0.0225
CCGCTGCC	-0.311
CAAATACC	-0.0908
ATCGTGAG	-0.176
CGCGTCAA	0.34
CGAATCTC	0.0112
AGCCAAAC	-0.0154
ATACTAAA	0.195
CAATCGGG	-0.0624
CTGCGTCC	-0.112
GGCTTTAA	-0.0239
GAGATCTC	-0.19
ATCCTGTA	0.106
TAGAGACA	-0.0315
GGCATTAC	0.169
AGCAAATG	-0.0717
AGATGAGC	0.116
TATGTAGA	0.215
CCGAGCTA	-0.221
CACGAGGA	-0.213

Sequence	PBM E-score
CATGCAAG	-0.184
ATGGTGGC	-0.29
ATATTTAC	0.27
GAGTCATA	0.122
GGAACGGA	-0.185
AAAAGTGA	0.132
CGCCTACA	-0.0932
AGTAACAA	0.203
GCACGCAA	0.252
CGCCTAGC	-0.346
GGAATATA	0.0732
CTACAGAG	0.0909
CCCACGAA	0.0343
CTTAGGAC	-0.042
AGTGTTTG	0.117
TACTAGCA	0.114
TCCAGTAA	-0.181
CGGCTGAC	0.0465
CTTCTCGC	-0.111
AGCTACAC	0.036
AGCGAACG	-0.129
CGGAGCCG	-0.321
ACGAATCG	0.238
CGGTTGCA	-0.176
GATACAGA	-0.07

Sequence	PBM E-score
ATCATGAG	0.211
GATACCTA	0.138
ATTTCGCC	-0.0513
CGTTTCTA	0.247
CATGCCAG	-0.191
GAAGGTGC	-0.314
GTTCTCTA	0.0251
CGCTTAGA	-0.155
GATATCTA	0.0935
CATCGCCA	0.0684
AAACCCTT	-0.0434
CCAAGATA	0.0108
AACTGGCC	-0.148
ACGATGTC	0.204
AGCGTTAT	0.0494
ACATTTAG	-0.106
TCGATCGA	-0.216
GATAGGTA	0.18
GCTCGCGA	-0.055
AATCCTGG	-0.199
CGCCGTGC	-0.189
CCGTGAGG	-0.306
